# Experimental data published in PubChem BioAssay (Tox21).
# Values joined by “and” are separate entries in the source; they are usually repeats but may differ in a detail not shown here. Equal entries are not always repeated. Inconclusive means that the source gave no clear call. Such entries were picked first, then a sample of the others. For some assays here: A potency beside an inconclusive call is a rough fit, not a confirmed value. Some compounds were tested as several samples or in several runs, with calls that do not always agree. Active and inactive are the calls of the source. Unless noted, the call rests on the fitted dose curve; in most records, active means well fitted curve in the direction sought with a large enough effect in the repeat runs; inconclusive means weak or mixed curves; inactive means no such curve, though single readings can be large; an effect the other way counts as inactive or inconclusive.
# Legend:
# [1] = qHTS assay to identify small molecule agonists of the estrogen receptor beta (ER-beta) signaling pathway - cell viability counter screen (AID 1259380); further: nearly all actives have a fitted effect of over 30% in size; further: potency means the concentration at half of the fitted maximal effect
# Outline: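 Cells used were ER-beta-UAS-bla HEK293T in medium with 2% charcoal-stripped FBS. They were treated for 16 hr at 37C. Viability came from CellTiter-Glo luminescence.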
# [2] = qHTS assay to identify small molecule antagonists of the estrogen receptor beta (ER-beta) signaling pathway - cell viability counter screen (AID 1259382); further: nearly all actives have a fitted effect of over 55% in size; further: potency means the concentration at half of the fitted maximal effect
# Outline: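 Agonist-stimulated (1nM E2) ER-beta-UAS-bla HEK293T cells are incubated with library compounds for 16 hr at 37C. Cell viability is then assessed in the reporter-assay wells by adding CellTiter-Glo and reading luminescence after 30 min.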
# [3] = target: Thyrotropin receptor (Homo sapiens) (UniProt P16473); experiment: qHTS assay to identify small molecule antagonists of the thyroid stimulating hormone receptor (TSHR) signaling pathway (AID 1259385; calls by dose curve; further: nearly all actives have a fitted effect of over 20% in size; further: potency means the concentration at half of the fitted maximal effect; on activity change, negative = inhibition: on the % scale 0 is the no-effect control and ±100 the full control effect); details: TSHR-HEK293 cAMP HTRF, TSH-stimulated antagonist mode; activity change, negative = inhibition: at 92.4 µM (top of the series) unless noted
# UniProt P16473, sequence (P16473 whole entry, looked up): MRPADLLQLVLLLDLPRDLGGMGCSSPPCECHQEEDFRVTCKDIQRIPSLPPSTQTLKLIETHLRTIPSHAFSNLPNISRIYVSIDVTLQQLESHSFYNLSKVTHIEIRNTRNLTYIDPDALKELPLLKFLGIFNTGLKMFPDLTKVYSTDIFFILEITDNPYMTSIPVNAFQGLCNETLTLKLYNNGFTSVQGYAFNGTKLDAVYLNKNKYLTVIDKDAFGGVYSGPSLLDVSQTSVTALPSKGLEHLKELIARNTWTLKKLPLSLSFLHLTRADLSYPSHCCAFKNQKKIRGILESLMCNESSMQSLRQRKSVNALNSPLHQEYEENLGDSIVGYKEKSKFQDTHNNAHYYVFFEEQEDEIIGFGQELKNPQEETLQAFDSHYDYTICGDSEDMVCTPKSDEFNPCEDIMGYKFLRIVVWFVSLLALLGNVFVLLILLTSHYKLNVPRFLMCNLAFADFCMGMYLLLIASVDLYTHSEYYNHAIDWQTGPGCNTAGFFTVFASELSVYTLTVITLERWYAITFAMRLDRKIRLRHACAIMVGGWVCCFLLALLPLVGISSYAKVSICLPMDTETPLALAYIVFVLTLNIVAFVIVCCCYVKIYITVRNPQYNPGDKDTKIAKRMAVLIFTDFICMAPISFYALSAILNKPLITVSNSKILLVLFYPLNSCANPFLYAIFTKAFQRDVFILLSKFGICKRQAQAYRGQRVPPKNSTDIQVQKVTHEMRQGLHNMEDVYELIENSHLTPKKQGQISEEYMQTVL
# Outline: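 TSHR-HEK293 cells (800/well) plated 18 h, then compounds with Ro20-1724 and TSH at 1.5 ng/mL final, 30 min at room temperature. cAMP quantified by HTRF (cAMP-d2/anti-cAMP-cryptate, 1 h); 15 concentrations in triplicate.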
# [4] = target: Progesterone receptor (Homo sapiens) (UniProt P06401); experiment: qHTS assay to identify small molecule antagonists of the progesterone receptor (PR) signaling pathway (AID 1346795; active means well fitted inhibition curve with a large enough effect in the signal ratio in the repeat runs, not every such curve was filed as active; inconclusive means weak or mixed curves; the % refers to the signal ratio; further: potency means the concentration at half of the fitted maximal effect; on activity change, negative = inhibition: on the % scale 0 is the no-effect control and ±100 the full control effect); details: PR-UAS-bla HEK293T, beta-lactamase FRET ratio, 16 h; activity change, negative = inhibition: at 92.4 µM (top of the series) unless noted
# UniProt P06401, sequence (P06401 whole entry, looked up): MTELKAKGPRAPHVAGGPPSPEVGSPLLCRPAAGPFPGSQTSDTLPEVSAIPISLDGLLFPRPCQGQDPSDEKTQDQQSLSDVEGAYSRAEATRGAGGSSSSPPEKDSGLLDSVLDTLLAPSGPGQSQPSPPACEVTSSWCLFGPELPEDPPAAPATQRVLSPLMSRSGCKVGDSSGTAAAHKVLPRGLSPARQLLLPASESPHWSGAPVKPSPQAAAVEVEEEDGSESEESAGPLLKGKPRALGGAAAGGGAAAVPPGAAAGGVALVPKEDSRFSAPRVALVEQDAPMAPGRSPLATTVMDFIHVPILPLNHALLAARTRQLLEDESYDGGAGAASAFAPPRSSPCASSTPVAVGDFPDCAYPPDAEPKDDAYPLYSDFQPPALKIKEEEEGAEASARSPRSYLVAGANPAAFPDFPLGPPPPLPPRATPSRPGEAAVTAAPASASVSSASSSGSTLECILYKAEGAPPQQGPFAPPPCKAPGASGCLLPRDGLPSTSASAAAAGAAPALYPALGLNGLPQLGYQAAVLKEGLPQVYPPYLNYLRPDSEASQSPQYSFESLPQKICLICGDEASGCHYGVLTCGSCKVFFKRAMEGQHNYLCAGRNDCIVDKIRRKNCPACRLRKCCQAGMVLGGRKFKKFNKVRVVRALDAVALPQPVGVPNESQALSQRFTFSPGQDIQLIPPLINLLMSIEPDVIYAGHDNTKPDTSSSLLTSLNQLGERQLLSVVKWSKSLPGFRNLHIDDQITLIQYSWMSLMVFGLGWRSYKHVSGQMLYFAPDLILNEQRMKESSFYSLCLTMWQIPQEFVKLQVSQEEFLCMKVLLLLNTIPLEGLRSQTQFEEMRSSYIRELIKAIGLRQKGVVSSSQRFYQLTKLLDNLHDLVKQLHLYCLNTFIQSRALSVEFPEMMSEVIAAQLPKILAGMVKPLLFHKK
# Outline: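 Antagonist mode with agonist R5020 at 1 nM final and 16 hr incubation at 37C. Reporter was beta-lactamase driven by UAS in HEK293T (PR-UAS-bla), 2% charcoal-stripped serum; signal from LiveBLAzer FRET substrate, 2 hr at room temperature.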
# [5] = qHTS assay to identify small molecule antagonists of the progesterone receptor (PR) signaling pathway - cell viability counter screen (AID 1346798); further: potency means the concentration at half of the fitted maximal effect; nearly all actives have a fitted effect of over 50% in size
# Outline: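 Cytotoxicity read as CellTiter-Glo luminescence (30 min, room temperature) in the same wells as the beta-lactamase readout. HEK293T PR-UAS-bla cells in charcoal-stripped 2% FBS received compound and R5020, then 16 h at 37C, 5% CO2.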
# [6] = qHTS assay to identify small molecule antagonists of the TGF-beta/Smad signaling pathway (AID 1346924; active means well fitted inhibition curve with a large enough effect in the signal ratio in the repeat runs, not every such curve was filed as active; inconclusive means weak or mixed curves; the % refers to the signal ratio); details: SBE-bla HEK293T, TGF-beta/Smad reporter, beta-lactamase ratio; activity, negative = inhibition: at 76.8 µM (top of the series) unless noted
# Outline: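 SBE-bla HEK 293T cells were plated overnight, then received compound in DMSO plus TGF-beta1 (added as a 0.25 ng/mL solution) and were incubated 5 h at 37 C. Beta-lactamase reporter activity was read after 2 h at room temperature with LiveBLAzer B/G FRET substrate (ex 405, em 460/530 nm).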
# [7] = Caspase-3/7 induction in CHO-K1 cells by small molecules, qHTS cell viability counter screen (AID 1346979); further: potency means the concentration at half of the fitted maximal effect; nearly all actives have a fitted effect of over 35% in size
# Outline: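 Cytotoxicity counter screen: CellTiter-Fluor added to compound-treated wild-type CHO-K1 cells at 16 h (37C, 5% CO2), fluorescence measured 1 h later; same wells as caspase-3/7 measurement.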
# [8] = qHTS assay to identify small molecule agonists or antagonists of the thyroid stimulating hormone receptor (TSHR) signaling pathway - wild type cell line counter screen (AID 1259384; calls by dose curve; further: on the % scale 0 is the no-effect control and ±100 the full control effect); details: HEK293 wild type, cAMP HTRF counter-screen; cAMP activity change: at 92.4 µM (top of the series), stronger effect = higher value unless noted
# Outline: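 Wild-type Hek293 cells, 800/well, 18 h at 37C, then compound with Ro20-1724 for 30 min RT. cAMP by HTRF (cAMP-d2/anti-cAMP cryptate), 1 h RT, fluorescence read. 15 concentrations, triplicates.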
# [9] = qHTS assay to identify small molecule agonists of the estrogen receptor alpha (ER-alpha) signaling pathway in the presence of an antagonist - cell viability counter screen (AID 1259386);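 further: potency means the concentration at half of the fitted maximal effect; cells exposed to compounds for 22 h at 37 °C before the viability read; nearly all actives have a fitted effect of over 30% in size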
# Outline: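 ICI-182,780 at 10.0nM final accompanies the compound titration (15 concentrations, 22hr, 37C) on VM7Luc4E2 cells. The CellTiter-Fluor fluorescence readout runs in the same wells as the luciferase assay.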
# [10] = target: Progesterone receptor (Homo sapiens) (UniProt P06401); experiment: qHTS assay to identify small molecule agonists of the progesterone receptor (PR) signaling pathway (AID 1346784; calls by dose curve; further: potency means the concentration at half of the fitted maximal effect; nearly all actives have a fitted effect of over 30% in size); details: PR-UAS-bla HEK293T, beta-lactamase FRET ratio, 16 h; activation: at 92.4 µM (top of the series) unless noted
# Outline: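 Agonist qHTS: compounds pinned onto 3,000 PR-UAS-bla HEK 293T cells per well in charcoal-stripped serum medium, 16hr at 37C, then beta-lactamase activity measured by LiveBLAzer FRET fluorescence after 2 hours at room temperature.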
# [11] = qHTS assay to identify small molecule agonists of the progesterone receptor (PR) signaling pathway - cell viability counter screen (AID 1346799; calls by dose curve; further: potency means the concentration at half of the fitted maximal effect; nearly all actives have a fitted effect of over 45% in size)
# Outline: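 Cytotoxicity measured by CellTiter-Glo luminescence (30 min, RT) in the same wells as the PR beta-lactamase agonist read. Those HEK293T cells had 16 h compound treatment at 37 C in 2% charcoal-stripped FBS medium.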
# [12] = qHTS assay to identify small molecule agonists of the TGF-beta/Smad signaling pathway (AID 1346859; active means well fitted activation curve with a large enough effect in the signal ratio in the repeat runs, not every such curve was filed as active; inconclusive means weak or mixed curves; the % refers to the signal ratio; further: potency means the concentration at half of the fitted maximal effect); details: SBE-bla HEK293T, TGF-beta/Smad beta-lactamase reporter, 5 h; activation: at 76.8 µM (top of the series)
# Outline: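 Fluorescence (ex 405 nm; em 460 and 530 nm) was read 2 h after LiveBLAzer FRET substrate at RT. The preceding compound treatment of overnight-plated SBE-bla HEK293T cells lasted 5 h at 37 C.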
# [13] = Caspase-3/7 induction in HepG2 cells by small molecules, qHTS assay (AID 1346978); further: potency means the concentration at half of the fitted maximal effect; nearly all actives have a fitted effect of over 15% in size
# Outline: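 Wild-type HepG2 cells, 2,000/well, settled 5 hr at 37 C and 5% CO2, then compound-treated for 17 hr; caspase-3/7 activity read by luminescent Caspase-Glo 3/7 after 30 min at room temperature.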
# [14] = qHTS assay to identify small molecule antagonists of the TGF-beta/Smad signaling pathway - cell viability counter screen (AID 1346824); further: nearly all actives have a fitted effect of over 50% in size; further: potency means the concentration at half of the fitted maximal effect
# Outline: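 SBE-bla HEK 293T cells, incubated overnight, then compound plus 0.25 ng/mL TGF-beta1 (stock added) for 5 hr at 37 C. Viability was read in the same wells by CellTiter-Glo luminescence after 30 min at room temperature.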
# [15] = qHTS assay to identify small molecule agonists of the TGF-beta/Smad signaling pathway - cell viability counter screen (AID 1346829); further: potency means the concentration at half of the fitted maximal effect; nearly all actives have a fitted effect of over 45% in size
# Outline: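 CellTiter-Glo luminescence readout; SBE-bla HEK 293T cells, overnight plating, compound 5 hr at 37 C/5% CO2, then bla substrate 2 hr RT, then CellTiter-Glo 30 min RT.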
# [16] = target: Thyrotropin-releasing hormone receptor (Homo sapiens) (UniProt P34981); experiment: qHTS assay to identify small molecule antagonists of the thyrotropin-releasing hormone receptor (TRHR) signaling pathway (AID 1346877; active means well fitted inhibition curve with a large enough effect in the repeat runs, not every such curve was filed as active; inconclusive means weak or mixed curves; further: potency means the concentration at half of the fitted maximal effect)
# UniProt P34981, sequence (P34981 whole entry, looked up): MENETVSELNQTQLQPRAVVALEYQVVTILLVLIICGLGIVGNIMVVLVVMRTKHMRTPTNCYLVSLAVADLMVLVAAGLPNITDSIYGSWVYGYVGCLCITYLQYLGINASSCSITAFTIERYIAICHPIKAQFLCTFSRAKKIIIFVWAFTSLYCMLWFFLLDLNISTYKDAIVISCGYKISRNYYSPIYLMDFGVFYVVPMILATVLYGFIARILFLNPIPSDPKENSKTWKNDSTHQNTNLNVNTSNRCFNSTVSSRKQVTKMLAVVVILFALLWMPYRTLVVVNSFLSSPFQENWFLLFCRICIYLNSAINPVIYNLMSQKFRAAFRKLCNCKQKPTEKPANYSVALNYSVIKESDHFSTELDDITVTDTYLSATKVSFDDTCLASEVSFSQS
# Outline: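 Screening used HEK293 cells engineered with TRHR, with a brief 5 min room-temperature compound exposure preceding addition of TRH to 1 nM. The read-out was kinetic calcium-dye fluorescence, concentration-response from 15 doses in triplicate.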
# [17] = target: Thyrotropin-releasing hormone receptor (Homo sapiens) (UniProt P34981); experiment: qHTS assay to identify small molecule agonists of the thyrotropin-releasing hormone receptor (TRHR) signaling pathway (AID 1346891; calls by dose curve; further: potency means the concentration at half of the fitted maximal effect)
# Outline: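 Agonist-mode intracellular calcium readout: kinetic fluorescence over 3 min at 1 s intervals after compound addition to TRHR-HEK293 cells (18 h seeded, 2 h dye-loaded at 37 C). Fifteen concentrations, triplicates.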
# [18] = Human pregnane X receptor (PXR) small molecule agonists, qHTS cell viability counter screen (AID 1346977); further: potency means the concentration at half of the fitted maximal effect; nearly all actives have a fitted effect of over 50% in size
# Outline: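 Same-well viability read: CellTiter-Fluor added after 23 hr compound exposure, fluorescence measured 1 hr later. Cells were PXR-Luc HepG2 seeded at 2,000/well in 5% charcoal-stripped FBS medium, rested 5 hr before dosing at 37 C.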
# [19] = Caspase-3/7 induction in CHO-K1 cells by small molecules, qHTS assay (AID 1346980); further: nearly all actives have a fitted effect of over 15% in size; further: potency means the concentration at half of the fitted maximal effect
# Outline: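 Wild-type CHO-K1 cells exposed to compounds for 17hr at 37 C, 5% CO2. Caspase-3/7 activity then measured by Caspase-Glo 3/7 luminescence after 30min at room temperature.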
# [20] = target: Estrogen receptor (Homo sapiens) (UniProt P03372); experiment: qHTS assay to identify small molecule agonists of the estrogen receptor alpha (ER-alpha) signaling pathway in the presence of an antagonist (AID 1259383; calls by dose curve; further: potency means the concentration at half of the fitted maximal effect; nearly all actives have a fitted effect of over 15% in size)
# UniProt P03372, sequence (P03372 whole entry, looked up): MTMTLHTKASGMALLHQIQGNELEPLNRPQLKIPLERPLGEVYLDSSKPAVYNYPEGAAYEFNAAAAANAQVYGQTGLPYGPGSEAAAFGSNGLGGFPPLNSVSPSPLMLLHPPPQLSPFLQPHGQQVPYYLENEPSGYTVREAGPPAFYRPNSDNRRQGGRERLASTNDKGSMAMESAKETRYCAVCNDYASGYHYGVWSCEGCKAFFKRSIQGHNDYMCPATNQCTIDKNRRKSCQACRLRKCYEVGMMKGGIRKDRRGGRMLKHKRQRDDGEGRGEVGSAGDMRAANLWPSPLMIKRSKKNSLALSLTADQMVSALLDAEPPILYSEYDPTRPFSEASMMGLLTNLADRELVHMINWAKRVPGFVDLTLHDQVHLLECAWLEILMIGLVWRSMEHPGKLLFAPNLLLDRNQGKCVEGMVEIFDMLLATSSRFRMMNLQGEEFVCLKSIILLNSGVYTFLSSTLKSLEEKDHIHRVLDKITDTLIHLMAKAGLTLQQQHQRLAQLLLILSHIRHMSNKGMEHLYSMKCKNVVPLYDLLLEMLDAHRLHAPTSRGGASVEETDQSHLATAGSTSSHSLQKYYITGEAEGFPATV
# Outline: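 Using VM7Luc4E2 cells seeded 24hr before treatment, antagonist ICI-182,780 (10.0nM final) was added, followed by compounds at 15 concentrations. Plates incubated 22hr; ONE-Glo luminescence quantified reporter activity.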
# Tags describe the fitted curve by direction and shape or compound fluorescence and quenching.
structure (smiles),measurement,setting,value
C[C@]12CC[C@H](O)CC1=CC[C@@H]1[C@@H]2CC[C@]2(C)C(=O)CC[C@@H]12,Potency,[1],"inconclusive: 33.5 µM [cytotoxic, single point]"
same,Potency,[2],"inconclusive: 33.5 µM [cytotoxic, partial curve, poor fit]"
same,Potency,[3],"inconclusive: 0.273 µM [falling, single point]"
same,Potency,[4],inconclusive: 5.45 µM [full curve] and inconclusive: 9.69 µM [full curve] and inconclusive: 8.41 µM
same,Potency,[5],"inconclusive: 2.98 µM [cytotoxic, single point]"
same,"activity, negative = inhibition",[6],inconclusive: -1.02% [at 35.3 µM]
same,Potency,[7],"inconclusive: 68.7 µM [cytotoxic, single point] and inconclusive: 68.6 µM [cytotoxic, single point]"
CCCCNC(=O)n1c(NC(=O)OC)nc2ccccc21,Potency,[1],"inconclusive: 0.272 µM [cytotoxic, single point]"
same,Potency,[2],"inconclusive: 68.2 µM [cytotoxic, partial curve, poor fit]"
same,Potency,[8],inactive
same,Potency,[3],"inconclusive: 0.686 µM [falling, partial curve, poor fit]"
same,Potency,[9],"inconclusive: 7.7 µM [rising, full curve]"
same,Potency,[10],inconclusive: 68.2 µM [cytotoxic]
same,Potency,[4],"inconclusive: 24.2 µM [rising, partial curve]"
same,"activity change, negative = inhibition",[4],inconclusive: -29.2%
same,Potency,[11],"inconclusive: 68.2 µM [cytotoxic, single point]"
same,Potency,[12],"inconclusive: 61.3 µM [rising, single point]"
same,Potency,[13],active: 6.08 µM
same,Potency,[7],"inconclusive: 21.6 µM [cytotoxic, partial curve]"
Cc1cccc(C)c1NC(=O)CN1CCCC1=O,Potency,[1],inactive
C=C(C)C(=O)[O][Sn]([CH2]CCC)([CH2]CCC)[CH2]CCC,Potency,[1],active: 1.37 µM
same,Potency,[2],active: 1.54 µM
same,Potency,[3],active: 12.2 µM
same,Potency,[9],active: 8.63 µM
same,Potency,[10],"inconclusive: 1.93 µM [cytotoxic, full curve]"
same,Potency,[4],active: 1.09 µM
same,Potency,[5],active: 3.44 µM
same,Potency,[11],active: 2.17 µM
same,Potency,[14],active: 1.38 µM
same,Potency,[15],active: 1.1 µM
same,Potency,[12],"inconclusive: 0.549 µM [rising, full curve]"
same,Potency,[16],active: 2.69 µM
same,Potency,[17],active: 11 µM
same,Potency,[18],active: 0.306 µM
same,Potency,[7],active: 0.306 µM
same,Potency,[19],active: 0.433 µM
CN(C)c1ccc(N=O)cc1,Potency,[1],active: 3.87 µM and active: 15.4 µM
same,Potency,[2],"inconclusive: 21.8 µM [cytotoxic, partial curve] and inconclusive: 27.3 µM [cytotoxic, partial curve]"
same,Potency,[3],"inconclusive: 34.5 µM [falling, partial curve]"
same,"activity change, negative = inhibition",[3],inconclusive: -9.17%
same,Potency,[10],"inconclusive: 48.7 µM [cytotoxic, partial curve, poor fit] and inconclusive: 68.6 µM [cytotoxic, single point]"
same,Potency,[5],active: 38.7 µM and active: 48.6 µM
same,Potency,[11],"inconclusive: 27.3 µM [rising, single point]"
same,"activity, negative = inhibition",[6],inconclusive: 12.8% and inconclusive: 16.5%
same,Potency,[19],inactive
CCC(C)(c1ccc(O)cc1)c1ccc(O)cc1,Potency,[1],"inconclusive: 27.3 µM [cytotoxic, single point]"
same,Potency,[2],inactive
same,Potency,[20],active: 9.68 µM and active: 8.63 µM
same,"activity, negative = inhibition",[6],inconclusive: -3.73% and inconclusive: -6.57%
same,Potency,[18],"inconclusive: 70.8 µM [cytotoxic, single point]"
same,Potency,[13],"inconclusive: 68.5 µM [activator, single point]"
same,Potency,[7],"inconclusive: 68.5 µM [cytotoxic, single point]"
CN=CNc1ccc(C)cc1C,Potency,[1],inactive
C/C(=N\NC(=O)Nc1cc(F)cc(F)c1)c1ncccc1C(=O)O,Potency,[1],inactive
same,Potency,[2],"inconclusive: 61.1 µM [cytotoxic, single point]"
same,Potency,[3],"inconclusive: 30.6 µM [falling, partial curve, poor fit]"
same,"activity change, negative = inhibition",[4],inconclusive: 2.3%
same,Potency,[11],active: 68.6 µM
same,Potency,[14],inactive
